# Data from PubChem BioAssay AID686979 (National Center for Advancing Translational Sciences (NCATS), 2013).
# Where “and” joins values, the source holds several entries; their conditions need not be identical. Identical values can stand only once. Among all 420,000 compounds or so, about 50,000 (12%) were called active. Inconclusive means that the source gave no clear call. Such entries were picked first, then a sample of the others. The call rests on the fitted dose curve; in most records, active means well fitted inhibition curve with a large enough effect; inconclusive means small, poorly fitted or top-dose-only effect; inactive means flat fitted curve, though single readings scatter. A potency beside an inconclusive call is a rough fit, not a confirmed value.
# Test: qHTS for Inhibitors of human tyrosyl-DNA phosphodiesterase 1 (TDP1): qHTS in cells in presence of CPT; further: nearly all actives have a fitted effect of over 55% in size
# Conditions: chicken DT40 Tdp1-/-;hTDP1 cells + 20 nM CPT, ATP luminescence, 48 h; activity change, negative = growth inhibition: at 46.2 µM (top of the series) unless noted
# Summary of the method: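 Chicken DT40 Tdp1-/- cells stably complemented with human TDP1 were seeded at 400 cells/well in medium containing 20 nM camptothecin, exposed to pin-transferred compounds, and grown at 37 °C for at least 48 hr. Viability was read as ATP luminescence.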
# On the % scale 0 is the no-effect control and ±100 the full control effect; potency means the concentration at half of the fitted maximal effect; tags describe the fitted curve by direction and shape.
Structure (SMILES),"activity change, negative = growth inhibition",Potency
O=C(COC(=O)CN1C(=O)c2ccccc2C1=O)Nc1ccccc1C(F)(F)F,inactive: -14%,–
O=c1c(/C=N/OCc2ccc(Cl)cc2Cl)c[nH]n1-c1cccc(Cl)n1,–,"inconclusive: 29.1 µM [inhibitor, single point]"
COc1cc(Nc2ccn3nc(-c4ccc(F)cc4)cc3n2)cc(OC)c1OC,–,"inconclusive: 5.8 µM [inhibitor, partial curve]"
CN(CCOc1ccc(-c2ccn(S(=O)(=O)c3ccc(Cl)cc3)n2)cc1)c1ccccn1,–,"inconclusive: 20.6 µM [inhibitor, single point]"
C=CCN(CC=C)c1cnn(-c2nc3ccccc3[nH]2)c(=O)c1Cl,–,"inconclusive: 23.1 µM [inhibitor, single point]"
CCOc1ccc(NC(=O)c2ccco2)c([N+](=O)[O-])c1,–,"inconclusive: 5.8 µM [inhibitor, full curve]"
COc1ccc2c(c1)-c1c(ssc1=S)C(C)(C)N2C(=O)CSC1=NCCS1,–,"inconclusive: 29.1 µM [inhibitor, single point]"
COCCN1C(=O)c2oc3ccccc3c(=O)c2C1c1cccc(O)c1 (centres undefined),inactive: 7.55%,–
O=C(CN1CCN(Cc2ccc(F)cc2Cl)CC1)NCc1ccccc1,–,"inconclusive: 23.1 µM [inhibitor, single point]"
CCS(=O)(=O)N1CCC(N2CCN(c3ccccc3)CC2)CC1,inactive: 3.97%,–
O=C(COc1ccccc1)NCc1nnc2c3ccccc3c(-c3ccccc3)nn12,–,"inconclusive: 18.4 µM [inhibitor, single point]"
Cc1ccc(C(=O)NCCOc2ccc(Cl)cc2)cc1,inactive: 11.9%,–
CCCc1nc2ccc(N)cc2c(=O)n1Cc1ccccc1Cl,inactive: 13%,–
C[C@H]1CN([C@@H](C)CO)C(=O)CCCn2cc(nn2)CO[C@@H]1CN(C)C(=O)CCC(F)(F)F,inactive: -14%,–
Cc1nc2ccccn2c1C(=O)NC1CCCCC1,inactive: 6.25%,–
CC(C)(C)[C@H]1COC(=O)CCC/C=C/C[C@H](CC(=O)N(CCO)Cc2ccccc2)C(=O)N1,–,"inconclusive: 13 µM [inhibitor, partial curve, poor fit]"
CC(=O)Cn1cnc2c(cnn2-c2ccc(C)c(C)c2)c1=O,–,"inconclusive: 29.1 µM [inhibitor, single point]"
CC(C)c1ccc(NC(=O)C2Cc3c(-c4cccc(C(N)=O)c4)ccnc3O2)cc1 (centres undefined),–,active: 16.4 µM
CCN1CCN(CCCNC(=O)c2ccc3c(Cl)c4c(nc3c2)CCCC4)CC1,–,"inconclusive: 20.6 µM [inhibitor, single point]"
CC(=O)N(c1ccc2oc(=O)sc2c1)S(=O)(=O)c1ccccc1,–,"inconclusive: 23.1 µM [inhibitor, single point]"
CCOC(=O)C(=O)C1(C(=O)OCC)Oc2cc(OC)cc(OC)c2C(=O)C1c1ccccc1 (centres undefined),inactive: -1.52%,–
O=C(NC1CCCC1)c1ccc(S(=O)(=O)N2CCOCC2)cc1,inactive: -16.9%,–

Structure (SMILES),"activity change, negative = growth inhibition",Potency
c1ccc(Nc2nc(-c3cccs3)cs2)nc1,–,"inconclusive: 29.1 µM [inhibitor, single point]"
COc1ccccc1N1C(C)=CC(=C(C#N)c2nc3ccccc3s2)C=C1C,–,active: 8.2 µM
CCCN1Cc2cccc(C(=O)NCCc3cccc(C)c3)c2C1=O,–,"inconclusive: 18.4 µM [inhibitor, single point]"
CCc1ccc(C(O)c2ncc(-c3ccc(C(F)(F)F)cc3)[nH]2)cc1 (centres undefined),–,"inconclusive: 32.6 µM [inhibitor, single point]"
N#C/C(=C(/O)CCl)c1nc2ccccc2[nH]1,–,active: 2.59 µM
COC(=O)c1sccc1NS(=O)(=O)c1ccccc1,inconclusive: -31.1% [inhibitor],–
COCCn1c(C23CC4CC(CC(C4)C2)C3)n[nH]c1=S,–,"inconclusive: 29.1 µM [inhibitor, single point]"
O=C(O)C1Cc2ccccc2-c2ccccc2C1,inconclusive: -32.5% [inhibitor],–
O=C(Nc1ccccc1)c1ccc(S(=O)(=O)N2CCCC2)cc1,inactive: -22.1%,–
Cc1ccc(N2C(=O)N(CC(=O)Nc3cccc(C)c3C)C(=O)C2C)cc1 (centres undefined),inactive: -24.1%,–
CCOC(=O)C1(C)CCN1C(=O)c1ccc(OC)c(C(F)(F)F)c1 (centres undefined),–,"inconclusive: 29.1 µM [inhibitor, single point]"
O=C(/C=C/c1cccs1)c1ccc(N2CCOCC2)cc1,–,"inconclusive: 29.1 µM [inhibitor, single point]"
COc1ccccc1OCC(=O)NCC(c1ccc(Cl)cc1)N1CCOCC1 (centres undefined),–,"inconclusive: 16.4 µM [inhibitor, single point]"
Cn1ncc([N+](=O)[O-])c1C(=O)Nc1ccc(-c2nc3ccccc3[nH]2)cc1,–,"inconclusive: 29.1 µM [inhibitor, single point]"
Cc1ccc(NC(=O)Cn2c(=O)n(CCCCC(=O)NCc3ccccc3Cl)c(=O)c3ccccc32)cc1,–,"inconclusive: 25.9 µM [inhibitor, single point]"
O=C(CCCN1CCC(C(=O)c2ccc(F)cc2)CC1)c1ccc(F)cc1,–,"inconclusive: 18.8 µM [inhibitor, single point] and inconclusive: 29.1 µM [inhibitor, single point]"
CCCCN1C(=O)/C(=C2/C=CC=CN2C)SC1=S,–,"inconclusive: 16.4 µM [inhibitor, partial curve, poor fit]"
CCc1nc2ccc(C(=O)N3CCN(C(=O)c4ccco4)CC3)cn2c1N(C)Cc1cccs1,–,"inconclusive: 29.1 µM [inhibitor, single point]"
Cc1ccn(CCC(=O)NCC2Cc3cc(Cl)cc(-c4ccc5[nH]ccc5c4)c3O2)n1 (centres undefined),–,"inconclusive: 23.1 µM [inhibitor, single point]"
CCOC(=O)c1cc2sccc2n1CC(=O)O,inactive: -2.4%,–
CC1=C(C(=O)N2CCCCCC2)CC(CC(=O)NC(c2ccccc2)c2ccccc2)C(=O)N1Cc1ccccc1 (centres undefined),–,"inconclusive: 29.1 µM [inhibitor, single point]"
O=C(Nc1cccc(C(F)(F)F)c1)c1cc(-c2ccco2)on1,–,"inconclusive: 7.31 µM [inhibitor, partial curve]"
